The list shows a part of the results. Many values rest on one well or one pass, so single values are uncertain.
Each molecule was assayed on RPMI7951 (assay: cell count relative to DMSO control; melanoma cells; higher = more viable cells). Details: library dose: standard library concentration; 72 h.
Molecule `Cc1cc(N2CCOCC2)cc2[nH]c(-c3c(NC[C@@H](O)c4cccc(Cl)c4)cc[nH]c3=O)nc12` + Oc1cc(-c2nc(-c3ccccc3)[nH]c2-c2ccncc2)ccc1Cl [L779450] (first compound 1 µM, partner dose 1 µM) has a cell count of 79.3%.
`O=C(O)[C@@H]1[O][Sb](=[O])([O][Sb]2(=[O])[O][C@H]([C@H](O)CO)[C@H](O)[C@H](C(=O)O)[O]2)[O][C@H]([C@H](O)CO)[C@@H]1O` (stereo not given in full) [stibogluconate] + O=S(=O)(c1ccccc1)N(CC(F)(F)F)c1ccc(C(O)(C(F)(F)F)C(F)(F)F)cc1 [T0901317] (first compound 10 µM, partner dose 7 µM) showed a cell count of 86.2%.
In the case of `O=C(O)[C@@H]1[O][Sb](=[O])([O][Sb]2(=[O])[O][C@H]([C@H](O)CO)[C@H](O)[C@H](C(=O)O)[O]2)[O][C@H]([C@H](O)CO)[C@@H]1O` (stereo not given in full) [stibogluconate] + Cn1cncc1[C@@](N)(c1ccc(Cl)cc1)c1ccc2c(c1)c(-c1cccc(Cl)c1)cc(=O)n2C [tipifarnib] (first compound 10 µM, partner dose 0.05 µM), the cell count is reported as 60.5%.
`O=C(Nc1cc(C(F)(F)F)cc(C(F)(F)F)c1)c1cc(Cl)ccc1O` + COc1ccc(COc2ccc(Cc3cnc(N)nc3N)cc2OC)cc1 [GW2580] (first compound 0.08 µM, partner dose 5 µM) gave a cell count of 119%.
Molecule `O=C(Nc1cc(C(F)(F)F)cc(C(F)(F)F)c1)c1cc(Cl)ccc1O` + Cc1cc([N+](=O)[O-])ccc1NS(=O)(=O)c1cc(Cl)ccc1Cl [FH535] (first compound 0.08 µM, partner dose 5 µM) has a cell count of 81.3%.
For `O=C(Nc1cc(C(F)(F)F)cc(C(F)(F)F)c1)c1cc(Cl)ccc1O` + Cn1cc(/C=C2\C(=O)Nc3cccnc32)c2ccccc21 [GW441756] (first compound 0.08 µM, partner dose 2 µM), the cell count was 76.1%.
With `O=C(O)c1ccc2c(c1)nc(Nc1cccc(Cl)c1)c1ccncc12` + CCc1ccc(CCOc2ccc(CC3SC(=O)NC3=O)cc2)nc1 [pioglitazone] (first compound 2 µM, partner dose 10 µM) the cell count was 66%.
Work on `Cc1cc(N2CCOCC2)cc2[nH]c(-c3c(NC[C@@H](O)c4cccc(Cl)c4)cc[nH]c3=O)nc12` + CC(C)CCN1c2nc(Nc3cc(F)c(O)c(F)c3)ncc2N(C)C(=O)C1C [BID1870] (first compound 1 µM, partner dose 1 µM) yielded a cell count of 77.9%.
`O=C(Nc1ccccc1)c1cc([N+](=O)[O-])ccc1Cl` + COc1ccc(-c2ccc3c(N4CCOCC4)nc(N4C[C@@H](C)O[C@@H](C)C4)nc3n2)cc1CO [KU0063794] (first compound 10 µM, partner dose 0.1 µM) gave a cell count of 74%.
Molecule `O=C(O)c1ccc2c(c1)nc(Nc1cccc(Cl)c1)c1ccncc12` + O=c1cc(-c2cccc3c2Sc2ccccc2S3)oc(N2CCOCC2)c1 [KU55933] (first compound 2 µM, partner dose 5 µM) has a cell count of 69.7%.
Molecule `O=C(O)c1ccc2c(c1)nc(Nc1cccc(Cl)c1)c1ccncc12` + c1cc(-c2cnn3cc(-c4ccc(OCCN5CCCCC5)cc4)cnc23)ccn1 [Dorsomorphin] (first compound 2 µM, partner dose 2 µM) has a cell count of 58.6%.
In the case of `Cn1nnc2c(C(N)=O)ncn2c1=O` [temozolomide] + Cc1cc([N+](=O)[O-])ccc1NS(=O)(=O)c1cc(Cl)ccc1Cl [FH535] (first compound 10 µM, partner dose 5 µM), the cell count is reported as 113%.
`O=C(Nc1cc(C(F)(F)F)cc(C(F)(F)F)c1)c1cc(Cl)ccc1O` + COc1ccc2c(c1)CCC1C2CCC2(C)C(NCCCCCCN3C(=O)C=CC3=O)CCC12 [U73122] (first compound 0.08 µM, partner dose 2 µM) was tested, and the cell count was 47.4%.
Molecule `Cc1cc(N2CCOCC2)cc2[nH]c(-c3c(NC[C@@H](O)c4cccc(Cl)c4)cc[nH]c3=O)nc12` + Oc1nc(-c2ccc(C(F)(F)F)cc2)nc2c1CSCC2 [XAV939] (first compound 1 µM, partner dose 10 µM) has a cell count of 78.6%.
For `O=C(Nc1cc(C(F)(F)F)cc(C(F)(F)F)c1)c1cc(Cl)ccc1O` + CC(=O)O[C@@]12CO[C@@H]1C[C@H](O)[C@@]1(C)C(=O)[C@H](O)C3=C(C)[C@@H](OC(=O)[C@H](O)[C@@H](NC(=O)OC(C)(C)C)c4ccccc4)C[C@@](O)([C@@H](OC(=O)c4ccccc4)[C@H]21)C3(C)C [Docetaxel] (first compound 0.08 µM, partner dose 0.0005 µM), the cell count was 19.9%.
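Also: cells treated in 1,536-well plates, then fixed and DAPI-stained, with nuclei counted from automated high-throughput microscope images.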
